Results taken from article PMC4336329 (PLoS ONE, 2015).
The whole screen tested about 310,000 compounds, of which about 2,200 (0.71%) showed an effect of 50% or more. Effects have a minus sign here. The list shows a part of the results.

Each compound was assayed against human ether-à-go-go-related gene (hERG) potassium channel (human, UniProt Q12809) (assay: primary screen, population patch clamp on CHO cells stably expressing hERG).
Chain of human ether-à-go-go-related gene (hERG) potassium channel (Q12809 whole entry, looked up): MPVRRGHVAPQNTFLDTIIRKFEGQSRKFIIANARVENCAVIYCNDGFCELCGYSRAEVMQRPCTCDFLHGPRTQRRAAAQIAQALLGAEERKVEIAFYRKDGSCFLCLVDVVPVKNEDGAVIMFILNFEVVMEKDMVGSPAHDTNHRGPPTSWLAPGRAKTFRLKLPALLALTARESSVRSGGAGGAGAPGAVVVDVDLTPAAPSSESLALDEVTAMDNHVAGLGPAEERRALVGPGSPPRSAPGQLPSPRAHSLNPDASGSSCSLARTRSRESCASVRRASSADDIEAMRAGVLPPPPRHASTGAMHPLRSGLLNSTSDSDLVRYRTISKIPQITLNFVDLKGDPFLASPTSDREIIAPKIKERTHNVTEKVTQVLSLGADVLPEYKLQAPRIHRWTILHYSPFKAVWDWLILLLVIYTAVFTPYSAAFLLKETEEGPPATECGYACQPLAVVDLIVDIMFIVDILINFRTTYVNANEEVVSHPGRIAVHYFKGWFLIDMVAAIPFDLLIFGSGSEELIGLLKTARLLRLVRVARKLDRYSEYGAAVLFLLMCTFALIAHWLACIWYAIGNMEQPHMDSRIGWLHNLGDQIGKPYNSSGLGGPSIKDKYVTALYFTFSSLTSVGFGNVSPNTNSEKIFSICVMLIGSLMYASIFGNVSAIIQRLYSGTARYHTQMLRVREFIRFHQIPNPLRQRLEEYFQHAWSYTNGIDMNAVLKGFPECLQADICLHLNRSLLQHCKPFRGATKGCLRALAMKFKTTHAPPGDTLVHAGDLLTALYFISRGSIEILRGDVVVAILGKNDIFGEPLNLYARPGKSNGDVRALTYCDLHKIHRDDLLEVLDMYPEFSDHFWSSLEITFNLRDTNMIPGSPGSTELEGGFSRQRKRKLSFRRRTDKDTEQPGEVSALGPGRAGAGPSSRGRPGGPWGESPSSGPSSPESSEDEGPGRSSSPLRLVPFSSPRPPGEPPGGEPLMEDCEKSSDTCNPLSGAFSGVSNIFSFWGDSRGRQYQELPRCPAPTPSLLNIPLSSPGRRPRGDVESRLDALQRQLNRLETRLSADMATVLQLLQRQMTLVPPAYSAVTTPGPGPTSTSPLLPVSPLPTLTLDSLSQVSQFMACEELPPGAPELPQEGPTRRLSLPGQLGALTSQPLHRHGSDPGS

| SMILES | hERG current change (%, negative = inhibition) at 1uM [%] |
| --- | --- |
| COC(=O)c1ccccc1NC(=S)NC(=O)c1ccccc1C | -9.42 |
| N=C1C(c2nc3ccccc3s2)=C(O)CN1C1CCCCC1 | -2.44 |
| Cc1nc(SCc2ccc(OCCC(C)C)cc2)n[nH]1 | 2.69 |
| Cc1ccc(-n2c(C)cc(/C=C(\C#N)C(=O)NCC3CCCO3)c2C)cc1 (centres unmarked) | -2.16 |
| CCOc1ccccc1NC(=O)C(OC(=O)c1ccc(NC(=O)CC#N)cc1)c1ccccc1 (centres unmarked) | 7.67 |
| COc1ccc(NC(=O)CSc2nnc(CNC(=O)c3ccco3)o2)c(OC)c1 | 8.02 |
| Br.CC(C)O.Cc1ccc(-c2csc(Nc3ccccc3)[n+]2CCc2ccccc2)cc1 | 14.6 |
| CC(=O)NC1(C(F)(F)F)NC(=O)N(C2CCCCC2)C1=O (centres unmarked) | -11.3 |
| COc1ccc2[nH]cc(CCNCc3cccnc3)c2c1.Cl | 14.6 |
| CN1N=C(C(=O)N2CCCC(C(=O)c3cccc(C(F)(F)F)c3)C2)CCC1=O (centres unmarked) | 13.3 |
| O=C(C1CC(c2ccc(F)cc2)=NO1)N1CCN(c2ccccc2)CC1 (centres unmarked) | 11.3 |
| CC(=O)Nc1cccc(NC(=O)C(=O)c2cn(CC(=O)N3CCCCC3)c3ccccc23)c1 | -2.31 |
| O=C1Nc2ccccc2C(=O)N2C[C@@H](O)C[C@H]12 | 18.4 |
| CCN1CCN(c2cc(C)c3cc(NC(=O)c4cccnc4Cl)ccc3n2)CC1 | -4.44 |
| CNC(=O)CSc1nnnn1-c1cc(C)ccc1C | 4.74 |
| CCCn1c(N)c(C(=O)COC(=O)c2c(C)noc2C)c(=O)n(C)c1=O | 4.74 |
| Nc1cc(N)cc(-c2nc3ccccc3[nH]2)c1 | -1.26 |
| CCCCOC(=O)CCc1c(C)[nH]c(=O)c(C#N)c1C | -2.94 |
| COC(=O)c1ccc(CSc2nncn2C)cc1 | -4.1 |
| O=C1CC(N2CCN(c3ccccc3)CC2)C(=O)N1CCc1ccccc1 (centres unmarked) | -17.3 |

| SMILES | hERG current change (%, negative = inhibition) at 1uM [%] |
| --- | --- |
| COCCNCc1ccccc1 | 0.65 |
| CCOC(=O)c1sc(NC(=O)CC)nc1C | 6.16 |
| O=C(CN1CCCc2ccccc21)NCc1ccc2c(c1)OCO2 | 9.15 |
| Cc1cc(C)n2ncc(-c3cccc(Br)c3)c2n1 | 11.1 |
| CC(C)CCN1CCN(Cc2cccc(-n3cccn3)c2)CC1CCO (centres unmarked) | -26 |
| O=c1cnc2ccccc2n1Cc1ccc(Br)cc1 | 9.65 |
| CC(=O)N1CCN(c2ccccc2NC(=O)c2cc3ccccc3o2)CC1 | 5.48 |
| Cc1ccc(O)c(CNc2cnc3ccccc3c2)c1 | 8.36 |
| CCCc1nnc(NC(=O)C2CC(=O)N(CCc3ccc(F)cc3)C2)s1 (centres unmarked) | 6.69 |
| CCn1c(SCC(=O)c2ccc3c(c2)OCCO3)nnc1C(C)C | 7.74 |
| O=C(CCc1nc(-c2ccc(Cl)cc2)no1)OCc1ccc(Br)cc1 | 5.61 |
| CCOc1ccc2[nH]c(=O)c(CN(CCO)C(=O)c3ccc(OC)c(OC)c3)cc2c1 | 4.92 |
| O=C(NCc1cccc(Cl)c1)c1ccc(-c2csnn2)cc1 | 4.65 |
| COC(=O)Cc1ccc(NC(=S)NCc2ccc(S(N)(=O)=O)cc2)cc1 | 10.7 |
| CCCCNS(=O)(=O)c1ccc(NC(=O)C(Sc2ccccc2)c2ccccc2)cc1 (centres unmarked) | 14.2 |
| CC(NC(=O)c1ccccc1N)c1ccccc1 (centres unmarked) | 10.5 |
| O=C(CNc1cccc(C(F)(F)F)c1)N/N=C/c1ccccc1C(=O)O | 8.48 |
| O=C(NC1CCCC1)C(c1ccc(F)cc1)N(C(=O)c1csnn1)c1ccccc1 (centres unmarked) | 2.71 |
| CCn1cc(C(=O)N2CCN(c3ccc(OC)cc3)CC2)c(=O)c2cc(S(=O)(=O)N3CCCCC3)ccc21 | 20.1 |
| COc1ccc(OCCOc2ccc(N(C)S(=O)(=O)c3ccccc3)cc2)cc1 | 0.211 |

| SMILES | hERG current change (%, negative = inhibition) at 1uM [%] |
| --- | --- |
| Fc1ccc(NC(=S)NCCc2ccc(Cl)cc2)cc1 | 14 |
| Cc1ccc([N+](=O)[O-])cc1NC(=O)CCSc1ccc(Cl)cc1 | 9.53 |
| O=C(NCc1ccccn1)c1ccc(CNS(=O)(=O)c2cccc(C(F)(F)F)c2)cc1 | -2.52 |
| CCN(CC)CCCNC(=O)CSc1c2c(nc3cc(Cl)ccc13)CCCC2 | -29.8 |
| Cc1nc(N)sc1-c1csc(Nc2ccccc2)n1 | 11.7 |
| COc1ccc(NC(=O)C2CCN(S(=O)(=O)c3ccc(Br)s3)CC2)cc1OC | 4.9 |
| CCC(=O)N(Cc1cc2cccc(C)c2[nH]c1=O)c1ccccc1OC | 2.67 |
| COc1ccccc1C1CN(c2ccc(F)cc2F)N=C1c1cccs1 (centres unmarked) | 0.748 |
| COCCCn1nnnc1SCC(=O)N1CCN(C(=O)c2ccco2)CC1 | 4.75 |
| Cn1cccc2[nH]c(=O)nc1-2 | 14.2 |
| COC(=O)c1cc(NC(=O)c2nn(C)c(=O)c3ccccc23)cc(C(=O)OC)c1 | 10.8 |
| N#C/C(=C\c1ccccc1[N+](=O)[O-])c1nc(C2CC2)cs1 | 14.9 |
| COc1ccc(CNC(=O)COc2ccc(S(=O)(=O)N3CCCCC3)cc2Cl)cc1 | 11.9 |
| O=C(COc1coc(CN2CCN(c3ccccc3F)CC2)cc1=O)NCC1CCCO1 (centres unmarked) | -6.09 |
| S=C(NCc1ccncc1)Nc1cc(Cl)cc(Cl)c1 | -13.7 |
| O=C(c1ccccc1)N1CCCOC1c1ccccc1 (centres unmarked) | -4.61 |
| O=S1(=O)NC2CCCCCN2c2ccc(F)cc21 (centres unmarked) | -7 |
| O=[N+]([O-])c1ccc(NC(=S)N2CCc3ccccc3C2)cc1 | 8.39 |
| COc1ccc(C(=O)CNc2ccc(C)cc2C)cc1 | 15.4 |
